The other results are listed elsewhere or left out. Most values come without repeats; read them as rough.
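Further: cells treated in 1,536-well plates, then fixed and DAPI-stained, with nuclei counted from automated high-throughput microscope images.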

This assay has as its system SkMel30. Description: cell count relative to DMSO control; melanoma cells; higher = more viable cells. The note with it: library dose: standard library concentration; 72 h.
Regarding `N#CC[C@H](C1CCCC1)n1cc(-c2ncnc3[nH]ccc23)cn1` [ruxolitinib] + O=C(Nc1cccc(Cl)c1)Nc1ncc(CCNc2ncnc3ccsc23)s1 [SNS314] (first compound 5 µM, partner dose 0.004 µM), the cell count is 84.3%.

For `N#CC[C@H](C1CCCC1)n1cc(-c2ncnc3[nH]ccc23)cn1` [ruxolitinib] + CN(NC(=O)CC(=O)NN(C)C(=S)c1ccccc1)C(=S)c1ccccc1 [STA4783] (first compound 5 µM, partner dose 0.03 µM), the cell count amounted to 94.2%.

The compound `N#CC[C@H](C1CCCC1)n1cc(-c2ncnc3[nH]ccc23)cn1` [ruxolitinib] + O=C(CCCCCCC(=O)Nc1ccccc1)NO [vorinostat] (first compound 5 µM, partner dose 0.4 µM) showed a cell count of 91%. In the case of `Cc1cc(Nc2cc(N3CCN(C)CC3)nc(Sc3ccc(NC(=O)C4CC4)cc3)n2)n[nH]1` [Tozasertib] + OCCn1cc(-c2cnc3nnn(Cc4ccc5ncccc5c4)c3n2)cn1 [PF04217903] (first compound 0.03 µM, partner dose 5 µM) it was 82%; in that of `N#CC[C@H](C1CCCC1)n1cc(-c2ncnc3[nH]ccc23)cn1` [ruxolitinib] + Cc1cc(N2CCOCC2)cc2[nH]c(-c3c(NC[C@@H](O)c4cccc(Cl)c4)cc[nH]c3=O)nc12 [BMS536924] (first compound 5 µM, partner dose 1 µM), 86.7%; in that of `N#CC[C@H](C1CCCC1)n1cc(-c2ncnc3[nH]ccc23)cn1` [ruxolitinib] + C=CCn1c(=O)c2cnc(Nc3ccc(N4CCN(C)CC4)cc3)nc2n1-c1cccc(C(C)(C)O)n1 [MK1775] (first compound 5 µM, partner dose 0.1 µM), 95.4%.

The record behind these values is the supplement of paper PMC4604168 (melanoma cell lines).
